{"source": "PubChem BioAssay AID485281", "about": "(National Center for Advancing Translational Sciences (NCATS), 2010)", "note": "Screen size: about 350,000 compounds; about 260 (0.074%) were called active. The shares of active, inactive and inconclusive entries below differ from those in the screen. Calls come from the whole dose curve; as a rule, active = well fitted inhibition curve with a large enough effect; inconclusive = small, poorly fitted or top-dose-only effect; inactive = no such curve, though single readings can be large or run the other way. Where the call is inconclusive, the potency comes from a doubtful curve fit. % is set by controls: 0 for no effect and ±100 for the full control effect; potency is the fitted concentration of half-maximal effect; tags give direction and shape of the fitted curve.", "data": [{"biological_target": "Ferritin light chain (Equus caballus) (UniProt P02791)", "sequence (P02791 whole entry, looked up)": "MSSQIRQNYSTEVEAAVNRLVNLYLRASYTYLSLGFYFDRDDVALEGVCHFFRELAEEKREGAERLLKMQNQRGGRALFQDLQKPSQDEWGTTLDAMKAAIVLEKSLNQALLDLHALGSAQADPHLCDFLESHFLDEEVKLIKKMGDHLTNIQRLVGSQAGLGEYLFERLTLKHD", "assay": "qHTS Assay for Identification of Novel General Anesthetics; note: nearly all actives have a fitted effect of over 20% in size", "conditions": "apoferritin/1-aminoanthracene competitive binding, fluorescence; activity change, negative = displacement: at 77.5 µM (top of the series)", "outline": "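Horse-spleen apoferritin (10 uM) was mixed with 50% saturated 1-aminoanthracene in PBS, exposed to compounds for 10 min at room temperature, and read for fluorescence (ex 380 nm, em 535 nm). Competitive displacement was fitted with a four-parameter Hill equation.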", "values": [{"smiles": "Cc1ccc(N(Cc2cc(=O)[nH]c3ccccc23)C(=O)C(C)C)c(C)c1", "Potency": "inconclusive: 35.5 µM [inhibitor, single point]"}, {"smiles": "CCOC(=O)C1=C(c2ccccc2)OC(N)=C(C#N)C1c1ccc(Cl)s1", "note": "(configuration not stated)", "Potency": "inconclusive: 15.8 µM [inhibitor, partial curve]"}, {"smiles": "CCCCN(CC)CCCNC(=O)c1cn(CC(C)C)c(=O)c2c1c1ccccc1n2C", "Potency": "inactive"}, {"smiles": "O=C1C2C3C=CC([C@@H]2C(=O)N1Cc1cccnc1)C31CC1", "note": "(some centres not stated)", "Potency": "inconclusive: 22.4 µM [inhibitor, partial curve]"}, {"smiles": "COc1ccc(-c2csc(NC(=O)CC(C)C)n2)cc1", "activity change, negative = displacement": "inactive: -9.13%"}, {"smiles": "Cc1cc(NC(=O)CSc2nnc(-c3ccc(Cl)s3)o2)no1", "Potency": "inconclusive: 39.8 µM [inhibitor, single point]"}, {"smiles": "Cc1ccc(CNC(=O)c2c[nH]c3ccc(S(=O)(=O)Nc4ccc(C(C)C)cc4)cc3c2=O)cc1", "activity change, negative = displacement": "inactive: -15.7%"}, {"smiles": "CN(C)C(CNC(=O)CCCc1c[nH]c2ccccc12)c1ccco1", "note": "(configuration not stated)", "Potency": "inconclusive: 20 µM [inhibitor, partial curve]"}, {"smiles": "CCC(C)(C)n1nnnc1C(c1ccc(O)c(OC)c1)N1CCc2ccccc2C1", "note": "(configuration not stated)", "Potency": "inconclusive: 35.5 µM [inhibitor, partial curve]"}, {"smiles": "Cc1ccc(S(=O)(=O)N/N=C/c2cccc([N+](=O)[O-])c2)cc1", "activity change, negative = displacement": "inactive: -13.3%"}, {"smiles": "COc1ccc(CNc2nc(NCc3ccc(OC)cc3)n(C(C)=O)n2)cc1", "Potency": "inconclusive: 1.78 µM [inhibitor, full curve, poor fit]"}, {"smiles": "Cn1cc(Br)c(C(=O)NC2CCCCCC2)n1", "Potency": "inconclusive: 35.5 µM [inhibitor, partial curve]"}, {"smiles": "O=C1CC(c2ccccc2)=NN1c1ccc([N+](=O)[O-])cc1", "Potency": "inconclusive: 17.8 µM [inhibitor, partial curve]"}, {"smiles": "C=CCOC(=O)/C(=C\\c1cccc2ccccc12)NC(=O)c1ccccc1", "Potency": "inconclusive: 25.1 µM [inhibitor, partial curve, poor fit]"}, {"smiles": "O=C(CSc1ccccn1)C12CC3CC(CC(C3)C1)C2", "Potency": "inconclusive: 50.1 µM [inhibitor, single point]"}, {"smiles": "Cc1cc(/C=C2\\SC(=S)NC2=O)c(C)n1C1CC1", "Potency": "inconclusive: 28.2 µM [inhibitor, partial curve]"}, {"smiles": "COc1ccc(-c2cc(=O)c3ccccc3o2)cc1", "Potency": "inactive"}, {"smiles": "O=C(CSc1ccc([N+](=O)[O-])cc1)Nc1cccc(S(=O)(=O)Nc2ccccc2F)c1", "Potency": "inconclusive: 31.6 µM [inhibitor, partial curve]"}, {"smiles": "CCOc1ccc(/C(O)=C2/C(=O)C(=O)N(CCCn3ccnc3)C2c2cccs2)cc1Cl", "note": "(configuration not stated)", "Potency": "inconclusive: 35.5 µM [inhibitor, single point]"}, {"smiles": "Cc1ccc(S(=O)(=O)N2CCCN(c3nc4cc(C)ccc4cc3C#N)CC2)cc1", "activity change, negative = displacement": "inactive: -6.78%"}, {"smiles": "Cc1ccccc1N1CCN(S(=O)(=O)CC23CCC(CC2NC(=O)C(N)CCS(C)(=O)=O)C3(C)C)CC1", "note": "(configuration not stated)", "activity change, negative = displacement": "inactive: -8.5%"}, {"smiles": "O=C(CSc1nccn1-c1ccc(Cl)cc1)N1CCCc2ccccc21", "Potency": "inconclusive: 35.5 µM [inhibitor, single point]"}, {"smiles": "CCCCCn1c(CN2CCN(c3cc(Cl)ccc3C)CC2)nc2c1c(=O)[nH]c(=O)n2C", "Potency": "inconclusive: 11.2 µM [inhibitor, partial curve]"}, {"smiles": "CCCCCN(C(=O)NC(=O)Nc1ccc(C)cc1)S(=O)(=O)c1ccccc1", "Potency": "inconclusive: 35.5 µM [inhibitor, partial curve]"}, {"smiles": "O=C(c1cc(COc2ccc(F)cc2Cl)on1)N1CCCCCCC1", "Potency": "inconclusive: 35.5 µM [inhibitor, partial curve]"}, {"smiles": "CCOC(=O)c1cc(NC(=O)N(CC)C2CCCCC2)c(C)nc1C", "Potency": "inconclusive: 44.7 µM [inhibitor, partial curve]"}, {"smiles": "CN(C)CCN1C(=O)C(O)=C(C(=O)c2cc3ccccc3o2)C1c1ccc(N(C)C)cc1", "note": "(configuration not stated)", "activity change, negative = displacement": "inactive: -9.01%"}, {"smiles": "Cc1cccc(NS(=O)(=O)c2cccc3nonc23)c1", "Potency": "inconclusive: 28.2 µM [inhibitor, partial curve]"}, {"smiles": "CCN(CC)S(=O)(=O)c1ccc(NC(=O)Cc2cccs2)cc1", "Potency": "inconclusive: 31.6 µM [inhibitor, partial curve]"}, {"smiles": "O=[N+]([O-])c1cc(/C=N/O)ccc1Sc1ccccc1", "Potency": "inconclusive: 31.6 µM [inhibitor, partial curve]"}, {"smiles": "O=C(COC(=O)/C=C/c1cn(-c2ccccc2)nc1-c1cccnc1)Nc1ccc(Cl)cc1Cl", "Potency": "inconclusive: 44.7 µM [inhibitor, single point]"}, {"smiles": "O=C(CN1CCN(c2ccccn2)CC1)Nc1ccc(OCc2ccccc2)cc1", "Potency": "inconclusive: 5.01 µM [inhibitor, full curve]"}, {"smiles": "Cc1ccc(NC(=O)c2ccc(Cl)c(N3C(=O)C=CC3=O)c2)cc1", "Potency": "inconclusive: 11.2 µM [inhibitor, partial curve]"}, {"smiles": "CN1CCc2nc(SCC(=O)Nc3cccc(F)c3)c(C#N)c(-c3cccs3)c2C1", "Potency": "inconclusive: 56.2 µM [inhibitor, single point]"}, {"smiles": "COc1ccc(C(=O)c2ccc(OC)c(OC)c2)cc1OC", "activity change, negative = displacement": "inactive: -15.2%"}, {"smiles": "CCOc1ccc(NC(=O)c2cnn3c2NC(c2ccccc2)=CC3c2cccc(OC)c2OC)cc1", "note": "(configuration not stated)", "Potency": "inconclusive: 22.4 µM [inhibitor, partial curve]"}, {"smiles": "CC1=C(C(N)=O)C(c2cccc(OCc3ccccc3)c2)n2nnnc2N1", "note": "(configuration not stated)", "Potency": "inconclusive: 35.5 µM [inhibitor, partial curve]"}, {"smiles": "O=S(=O)(c1ccc2c(c1)C(=NO)c1cc(S(=O)(=O)N3CCCCC3)ccc1-2)N1CCCCC1", "activity change, negative = displacement": "inactive: -20.1%"}, {"smiles": "CCOC(=O)C1=C(CNCc2ccc(F)cc2)NC(=O)NC1c1cccc([N+](=O)[O-])c1", "note": "(configuration not stated)", "Potency": "inconclusive: 35.5 µM [inhibitor, single point]"}, {"smiles": "CCOC(=O)CNC(=O)C12CC3CC(C1)CC(c1ccc(C)cc1)(C3)C2", "Potency": "inconclusive: 25.1 µM [inhibitor, partial curve]"}, {"smiles": "COC(=O)C(C)Oc1ccc(Oc2nc(Cl)ccc2Cl)cc1", "note": "(configuration not stated)", "Potency": "inconclusive: 17.8 µM [inhibitor, partial curve]"}, {"smiles": "O=C(CNCC1CCCO1)Nc1ccc(N2CCCCCC2)cc1", "note": "(configuration not stated)", "Potency": "inconclusive: 44.7 µM [inhibitor, single point]"}, {"smiles": "O=C1CNC(=S)N1c1nc(-c2ccccc2)cs1", "activity change, negative = displacement": "inactive: 4.14%"}, {"smiles": "CCOc1ccc(-c2csc(NC(=O)CSC3=NC(=O)CN3C(C)=O)n2)c2ccccc12", "activity change, negative = displacement": "inactive: -3.99%"}, {"smiles": "CC(=O)c1c(C)nc2ccc(Br)cc2c1-c1ccccc1", "Potency": "inconclusive: 31.6 µM [inhibitor, partial curve]"}, {"smiles": "CCOc1ccccc1NC(=O)Cn1c(=O)n(-c2ccc(C)c(C)c2)c(=O)c2c(C)c(C(=O)N(C)C)sc21", "Potency": "inconclusive: 2 µM [inhibitor, partial curve]"}, {"smiles": "CCN(CC)c1ccc(NC(=S)Nc2ccc(F)cc2)cc1", "Potency": "inconclusive: 39.8 µM [inhibitor, single point]"}, {"smiles": "COc1ccc(CSCCNC(=S)Nc2ccccc2)cc1Cl", "activity change, negative = displacement": "inactive: -11.6%"}, {"smiles": "O=C(NCCCN1CCOCC1)c1ccccc1N1C(=O)[C@@H]2Cc3c([nH]c4ccccc34)C(c3cccc(Cl)c3)N2C1=O", "note": "(some centres not stated)", "activity change, negative = displacement": "inactive: -12.1%"}, {"smiles": "CC(C)NC(=S)N=Nc1c(O)[nH]c2ccc([N+](=O)[O-])cc12", "Potency": "inconclusive: 31.6 µM [inhibitor, partial curve]"}, {"smiles": "CCOn1c(=O)c[n+]([O-])c2ccccc21", "activity change, negative = displacement": "inactive: -3.17%"}, {"smiles": "Fc1cccc(F)c1CSc1nc2ccccc2[nH]1", "Potency": "inconclusive: 11.2 µM [inhibitor, partial curve]"}, {"smiles": "O=C(CC1C(=O)NCCN1Cc1ccccc1)NC1CCCCCC1", "note": "(configuration not stated)", "Potency": "inconclusive: 28.2 µM [inhibitor, partial curve]"}, {"smiles": "C=C(C)n1c(=O)n(Cc2ccccc2C)c2ccccc21", "Potency": "inconclusive: 25.1 µM [inhibitor, single point]"}, {"smiles": "Cc1ccc2nc(NC(=O)C3CCCN(S(=O)(=O)c4cccc5nonc45)C3)sc2c1", "note": "(configuration not stated)", "activity change, negative = displacement": "inactive: -13.6%"}, {"smiles": "COc1cccc(CNC(=O)c2ccc(C3SCCS3)cc2)c1", "Potency": "inconclusive: 25.1 µM [inhibitor, partial curve]"}, {"smiles": "CCOC(=O)c1ccccc1NC(=O)CN(c1cc(C(F)(F)F)ccc1Cl)S(C)(=O)=O", "activity change, negative = displacement": "inactive: -8.5%"}, {"smiles": "CC(=O)NCCNc1ncnc2ccc(-c3ccc(C(=O)N(C)C)cc3)cc12", "activity change, negative = displacement": "inactive: -16.2%"}, {"smiles": "CCCCSCCCNC(=O)c1cn(CC)c2ccc(S(=O)(=O)N(C)C3CCCCC3)cc2c1=O", "Potency": "inconclusive: 12.6 µM [inhibitor, partial curve]"}, {"smiles": "C/C(=N\\NC(=O)c1cccc(N/N=C(\\C)c2ccccc2)c1)c1ccccc1", "Potency": "inconclusive: 8.91 µM [inhibitor, partial curve]"}, {"smiles": "O=C(c1ccc(CSc2ccc(Cl)cc2)cc1)N1CCCC1", "Potency": "inconclusive: 35.5 µM [inhibitor, partial curve]"}, {"smiles": "O=C(Cn1cnc2ccccc21)N1CCc2ccccc21", "Potency": "inconclusive: 44.7 µM [inhibitor, single point]"}, {"smiles": "Cc1cc(=O)oc2cc(OCC(=O)OCC(=O)N3CCC(C)CC3)ccc12", "Potency": "inconclusive: 28.2 µM [inhibitor, partial curve]"}, {"smiles": "CC1CCC(C(C)C)C(OC(=O)COC(=O)c2ccc(=O)[nH]c2)C1", "note": "(configuration not stated)", "Potency": "inconclusive: 35.5 µM [inhibitor, partial curve]"}, {"smiles": "CC(=O)c1c(O)c(C)c(-c2ccccc2)n(-c2ccccc2)c1=O", "Potency": "inconclusive: 31.6 µM [inhibitor, partial curve, poor fit]"}, {"smiles": "O=C(CSc1nc2c([nH]c3ccccc32)c(=O)n1-c1ccc(F)cc1)Nc1ccc2c(c1)OCO2", "activity change, negative = displacement": "inactive: -7.95%"}, {"smiles": "CC(=O)N1c2ccc(S(=O)(=O)N3CCCC3C(=O)NCc3ccccc3Cl)cc2CC1C", "note": "(configuration not stated)", "Potency": "inconclusive: 25.1 µM [inhibitor, single point]"}]}]}
